# Measured values published in PubChem BioAssay AID1030 (National Center for Advancing Translational Sciences (NCATS), 2008).
# Out of some 220,000 compounds screened, about 16,000 (7.3%) were called active. The shares of active, inactive and inconclusive entries below differ from those in the screen. Calls come from the whole dose curve; as a rule, active = well fitted inhibition curve with a large enough effect (not every such curve was filed as active); inconclusive = small, poorly fitted or top-dose-only effect, or another doubt; inactive = no such curve, though single readings can be large or run the other way. Potencies of inconclusive entries are left out as doubtful fits.
# Molecular target: Aldehyde dehydrogenase 1A1 (Homo sapiens) (UniProt P00352)
# Sequence of UniProt P00352 (P00352 whole entry, looked up): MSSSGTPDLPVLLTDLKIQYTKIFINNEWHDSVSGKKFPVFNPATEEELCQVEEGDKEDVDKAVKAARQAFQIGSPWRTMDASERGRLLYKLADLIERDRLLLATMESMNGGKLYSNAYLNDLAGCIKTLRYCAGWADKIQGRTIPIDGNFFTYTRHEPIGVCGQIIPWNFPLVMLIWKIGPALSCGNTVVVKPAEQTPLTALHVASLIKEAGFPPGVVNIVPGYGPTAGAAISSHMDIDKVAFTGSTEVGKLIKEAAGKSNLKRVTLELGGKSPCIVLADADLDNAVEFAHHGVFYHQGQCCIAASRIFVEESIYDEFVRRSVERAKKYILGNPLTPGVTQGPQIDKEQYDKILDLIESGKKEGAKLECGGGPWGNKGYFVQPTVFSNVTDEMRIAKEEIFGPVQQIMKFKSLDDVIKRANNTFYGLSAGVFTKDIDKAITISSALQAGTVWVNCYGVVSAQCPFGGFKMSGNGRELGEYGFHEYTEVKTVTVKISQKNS
# Test: qHTS Assay for Inhibitors of Aldehyde Dehydrogenase 1 (ALDH1A1)
# Details: Purified ALDH1A1, NADH fluorescence, propionaldehyde substrate; series mostly up to 75.3 µM
# Potency is the fitted concentration of half-maximal effect; tags give direction and shape of the fitted curve.
row,Structure (SMILES),Potency
1,COc1cccc(C(=O)NC2CCN(C(=O)N3c4ccccc4Sc4ccccc43)CC2)c1,inactive
2,CCc1ccc2[nH]c(=O)c(C(c3nnnn3CCOC)N3CCN(c4ccccc4F)CC3)cc2c1 (centres undefined),"inconclusive [inhibitor, partial curve]"
3,CC1(C)Cc2c(C#N)c(SCCOc3ccccc3)nc(N3CCOCC3)c2CO1,"inconclusive [inhibitor, single point]"
4,O=c1cc(-c2ccc([N+](=O)[O-])cc2)c2ccc(O)cc2o1,inactive
5,COc1ccc(-c2cc(-c3cccs3)c(C#N)c(SCC(=O)NCc3ccccc3)n2)cc1,"inconclusive [inhibitor, single point]"
6,Cc1cccc2c(-c3ccccc3)cc(=O)[nH]c12,inactive
7,Cc1nnc(SCC(=O)N2CCN(c3ccccc3)CC2)n(N)c1=O,"inconclusive [inhibitor, single point]"
8,CCCn1c2c(c(O)c(C(=O)Nc3nccs3)c1=O)CCCC2,"inconclusive [inhibitor, partial curve]"
9,CCc1ccc2[nH]c(=O)c(C(c3nnnn3CC3CCCO3)N3CCN4CCCC4C3)cc2c1 (centres undefined),"inconclusive [inhibitor, single point]"
10,Cc1ccc(NCc2nnc(SCC(=O)Nc3cccc(O)c3)n2CC2CCCO2)c(C)c1 (centres undefined),active: 3.98 µM
11,O=c1c2cc(-c3ccccc3)sc2nc2n1CCC2,"inconclusive [inhibitor, partial curve]"
12,Cc1nn(-c2ccccc2)c(N2CCCC2)c1/C=N/NC(=O)C1CC1,inactive
13,CCOC(=O)C1CCCN(S(=O)(=O)c2ccc(C)cc2)C1 (centres undefined),active: 8.91 µM
14,CC(NC(=O)C1CCN(S(=O)(=O)c2cnc[nH]2)CC1)c1ccccc1 (centres undefined),inactive
15,S=C1NCN(CCc2ccccc2)CN1Cc1ccccc1,"inconclusive [inhibitor, partial curve, poor fit]"
16,CSc1nnc(C(C)c2ncc(C(F)(F)F)cc2Cl)n1C (centres undefined),inactive
17,COCCNC(=O)C(=O)NNS(=O)(=O)c1ccc2ccccc2c1,inactive
18,Nc1ccc(Nc2nc(-c3cc4ccccc4oc3=O)cs2)cc1,"inconclusive [inhibitor, partial curve]"
19,COc1ccc(NC(=O)COC(=O)c2c3c(nc4ccccc24)CCCC3)cc1Cl,inactive
20,CN(C)S(=O)(=O)c1cccc(C(=O)NCC2CCCO2)c1 (centres undefined),inactive
21,CCn1c(-c2cc(C3CC3)nc3ccccc23)n[nH]c1=S,"inconclusive [inhibitor, single point]"
22,COc1ccc(C2C(C(=O)N3CCOCC3)CCC(=O)N2c2ccc(OC)cc2)cc1 (centres undefined),active: 14.1 µM
23,NC(=O)c1nsc(C(=O)N(CC(=O)NCc2ccc3c(c2)OCO3)C2CCCCC2)c1N,"inconclusive [inhibitor, partial curve]"
24,CC(=O)c1cccc(NC(=S)NC(=O)Cc2ccccc2)c1,"inconclusive [inhibitor, single point]"
25,CCOC(=O)c1cc(-c2cccs2)nn1CCC#N,active: 14.1 µM

row,Structure (SMILES),Potency
1,Cc1c(CCO)c(=O)n(-c2ccccc2)n1S(=O)(=O)c1ccc([N+](=O)[O-])cc1,"inconclusive [inhibitor, single point]"
2,O=C(NCc1ccc(Cl)cc1)c1ccccc1CCc1ccccc1,"inconclusive [inhibitor, single point]"
3,S=C1Nc2ccccc2Sc2ccc(Cl)cc21,inactive
4,CCS(=O)(=O)c1ccc(C(=O)NC)c(Cl)c1Cl,inactive
5,Cc1ccc(S(=O)(=O)Nc2nc3ccccc3s2)cc1[N+](=O)[O-],"inconclusive [inhibitor, single point]"
6,CCOC(=O)c1ccc(NC(=S)NN2CCOCC2)cc1,"inconclusive [inhibitor, single point]"
7,COc1ccccc1NC(=O)c1cnc2c(-c3ccccc3)c(C)nn2c1C,"inconclusive [inhibitor, single point]"
8,CCN(CC)S(=O)(=O)c1cc(C(=O)Nc2cccnc2Cl)ccc1Cl,"inconclusive [inhibitor, partial curve]"
9,Cn1c(=O)c2c(nc(Cl)n2CC(=O)N2CCCCC2)n(C)c1=O,inactive
10,O=C(Cn1nc(-c2ccccc2)ccc1=O)NCCN1CCN(Cc2ccccc2)CC1,"inconclusive [inhibitor, partial curve]"
11,N#Cc1cc2c(nc1SCc1ccccc1)CCCC2,inactive
12,CCn1nc(NC(=O)c2ccco2)c2cc3cc(C)ccc3nc21,"inconclusive [inhibitor, single point]"
13,COCCn1c(=O)c(-c2ccccc2)nc2cnc(Nc3ccccc3)nc21,inactive
14,O=C(NC1CC1)C1=C[C@@H](c2coc3ccccc3c2=O)C[C@@H](OCc2ccc(CO)cc2)O1,"inconclusive [inhibitor, single point]"
15,COc1cc(OC)cc(C(=O)NC2CCN(Cc3nnnn3Cc3ccc(F)cc3)CC2)c1,inactive
16,Cc1ccc(S(=O)(=O)Nc2cc(C(C)C)c(O)cc2C)cc1,active: 2 µM
17,c1ccc(-c2nnc(CSc3nnc(-c4cccs4)o3)o2)cc1,"inconclusive [inhibitor, partial curve, poor fit]"
18,c1ccc2c(CSc3ncnc4nc[nH]c34)cccc2c1,inactive
19,O=C(NCc1ccc(F)cc1)C1Cc2ccccc2CN1C(=O)c1ccco1 (centres undefined),inactive
20,CCOCCCNC(=S)N1CCCN(c2nc3cc(C)c(C)cc3cc2C#N)CC1,"inconclusive [inhibitor, single point]"
21,O=C(CCC(=O)N1CCN(C(=O)c2ccco2)CC1)c1ccc(F)cc1,inactive
22,COCCn1c(=O)cnc2cnc(OCc3ccccc3)nc21,inactive
23,Cc1nn(C)c(C)c1S(=O)(=O)N1CCc2ccccc21,"inconclusive [inhibitor, single point]"
24,Cc1ccc(-c2nnc(SCC(=O)N3CCOCC3)nc2-c2ccc(C)cc2)cc1,"inconclusive [inhibitor, single point]"
